47 molecules from PubChem BioAssay AID1508623 (National Center for Advancing Translational Sciences (NCATS), 2021) can be followed below.

Hit rate of the full screen: of about 48,000 compounds, about 450 (0.94%) were called active. Not shown: some 19% with an inconclusive outcome. Calls come from the whole dose curve; as a rule, active = well fitted inhibition curve with a large enough effect; inconclusive = small, poorly fitted or top-dose-only effect; inactive = no such curve, though single readings can be large or run the other way. The list shows a part of the results.

This assay in a line: Primary qHTS for Identification of Small Molecule Inhibitors of Huntingtin Promoter Activity. Note: nearly all actives have a fitted effect of over 50% in size. The settings on record: HEK293 HTT promoter firefly luciferase reporter (activity 0% = vehicle and -100% = no light), 24 h; series mostly up to 57.5 µM; activity change, negative = inhibition: at the top concentration. In outline:
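Luminescence was read after Dual-Glo reagent and a 10 min room-temperature incubation. Values were normalized to vehicle (0% activity) and zero RLU (-100% activity). Reporter HEK293 cells had been exposed to compounds (up to 57.5 uM final) for 24 h.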
(In general: qHTS replaces the single test concentration by a dilution series.)
Turning to `CCOC(=O)c1c(C)oc2nc(C)nc(NCCCN3CCN(c4ccc(F)cc4)CC3)c12`, the “activity change, negative = inhibition” value was inactive: -0.49%. In the case of `COc1ccccc1NC(=O)c1ccc2oc(=O)c(S(=O)(=O)c3ccccc3)cc2c1`, the “activity change, negative = inhibition” value is inactive: -4.65%. Turning to `Cc1cc(N2CCN(c3cccc(C)c3C)CC2)n2nc(C)c(-c3ccc(Cl)cc3)c2n1`, the “activity change, negative = inhibition” value is inactive: -9.53%.

`CCOc1ccc(C2c3c(oc4ccccc4c3=O)C(=O)N2c2nnc(C)s2)cc1OC` (configuration not stated): the “activity change, negative = inhibition” value was inactive: -12.3%. `COc1ccc(-n2c(-c3ccco3)nc3c(cnn3-c3ccccc3C)c2=O)cc1`: the “activity change, negative = inhibition” value is inactive: -16.3%. Take `Cc1cccc(Cn2cnc3c(cnn3-c3ccc(Cl)cc3)c2=O)c1`: the “activity change, negative = inhibition” value is inactive: -9.73%. As for `Cc1cc(C)c2oc(C(=O)Nc3ccc(S(=O)(=O)N4CCC(C)CC4)cc3)cc(=O)c2c1`, the “activity change, negative = inhibition” value was inactive: 1.12%. The same measure for `Cc1ccc(CN2CCN(C3CCN(C(=O)Nc4ccccc4C(F)(F)F)CC3)C(=O)C2=O)cc1`: inactive: -3.69%; for `Cc1cc(C)n2c(Nc3ccccc3)c(-c3ccccc3)nc2n1`: inactive: -4.79%.

As to `CCn1c(=O)cc(OCC(=O)N2CCN(c3ccccc3OC)CC2)c2ccccc21`, the “activity change, negative = inhibition” value was inactive: -1.54%.

As for `Cc1ccc(S(=O)(=O)n2nc(-c3ccco3)nc2NCc2ccccc2Cl)cc1`, the “activity change, negative = inhibition” value is inactive: -2.38%. For the molecule `Cc1cccc(C)c1NC(=O)CCCN1C(=O)CCn2nc(-c3cn(C)c4ccccc34)cc21`, the “activity change, negative = inhibition” value was inactive: 3.71%. The same measure for `CC(NC(=O)c1ccc2c(c1)N(Cc1ccc(Cl)cc1)C(=O)c1ccccc1S2=O)c1ccccc1` (configuration not stated): inactive: -20.9%; for `COc1ccc(Cl)cc1NC(=O)Cn1cnc2c1c(=O)n(C)c(=O)n2C`: inactive: -1.74%. Take `CC(C)NC(=O)C1CCCN(c2ncnc3c2nc2n3CCCCC2)C1` (configuration not stated): the “activity change, negative = inhibition” value was inactive: -71.6%.

For `CCCN1CCN(c2cc3c(cc2F)c(=O)c(S(=O)(=O)c2ccc(Cl)cc2)cn3C)CC1`, the “activity change, negative = inhibition” value was inactive: -18.9%.

For the molecule `Cn1c(=O)n(C)c2cc(N3CCOCC3)c(NC(=O)c3c(F)cccc3F)cc21`, the “activity change, negative = inhibition” value is inactive: 6.75%. The figure for `COc1ccc(C(=O)NCC(c2ccc(N(C)C)cc2)N2CCc3ccccc32)cc1` (configuration not stated) is inactive: -18%; for `CCc1cc2c(-c3ccccc3)cc(=O)oc2c2c1OCN(Cc1ccc(F)cc1)C2` it is inactive: -27.1%; for `COc1cc(OC)c(NC(=O)Nc2c(C)n(C)n(-c3ccccc3)c2=O)cc1Cl` it is inactive: -22.1%.

As to `O=C(NC1CC(=O)N(c2cccc(F)c2)C1)C(c1ccccc1)c1ccccc1` (configuration not stated), the “activity change, negative = inhibition” value was inactive: -5.24%. Take `Cc1cn([C@@H]2C[C@@H](O)[C@H](CO)O2)c(=O)[nH]c1=O`: the “activity change, negative = inhibition” value is inactive: -0.212%. On to `CCC1C(=O)OCC1Cc1cncn1C` (configuration not stated), for which the “activity change, negative = inhibition” value is inactive: 4.83%. The figure for `CCC(Oc1ccccc1)C(=O)Nc1ccc(OCc2cc(=O)n3ccccc3n2)cc1` (configuration not stated) is inactive: 8.62%. The same measure for `CCOc1ccc(CNC(=O)C2Cc3ccccc3N2C(=O)CC)cc1` (configuration not stated): inactive: -3.65%.

Take `CO[C@H]1C=CO[C@@]2(C)Oc3c(C)c(O)c4c(O)c(c5c(c4c3C2=O)NC2(CCN(CC(C)C)CC2)N=5)=NC(=O)C(C)=CC=C[C@H](C)[C@H](O)[C@@H](C)[C@@H](O)[C@@H](C)[C@H](OC(C)=O)[C@H]1C`: the “activity change, negative = inhibition” value was inactive: -15.2%. `CCOC(=O)c1cc(NC(=O)c2ccc(Cl)cc2)c(=O)n2c1oc1ccccc12`: the “activity change, negative = inhibition” value is inactive: -0.518%. The figure for `NC(=O)c1ncn([C@@H]2O[C@H](CO)[C@@H](O)[C@H]2O)c1O` is inactive: 0.158%; for `O=C(Nc1ccc(Br)cc1)c1cccc(C(=O)Nc2ccc(Br)cc2)c1` it is inactive: -23.8%. The same measure for `O=S(=O)(c1ccc(Cl)cc1)c1nc(-c2ccccc2)oc1N1CCN(c2ccccc2)CC1`: inactive: -17.6%. The figure for `CCOc1ccc(C2CC(=O)c3c([nH]c(C(=O)OC4CCC(C)CC4)c3C)C2)cc1` (configuration not stated) is inactive: -5%; for `COc1ccccc1N1CCN(C(=O)CN2C(=O)COc3ccc(S(=O)(=O)N4CCCC4)cc32)CC1` it is inactive: -15.9%; for `CCc1nc(SCc2cc(=O)c3cc(C)ccc3[nH]2)n[nH]1` it is inactive: -1.03%. On to `CCn1c(/C(C#N)=C/c2ccccc2Cl)nc2ccccc21`, for which the “activity change, negative = inhibition” value was inactive: 22.7%. With `Cc1ccc(CNC(=O)Cn2c(=O)n(Cc3ccccc3)c(=O)c3sc4ccccc4c32)cc1`, the “activity change, negative = inhibition” value is inactive: -7.16%. Regarding `Cc1cc2ccccc2n1CCNC(=O)c1cc(C(F)(F)F)cc(C(F)(F)F)c1`, the “activity change, negative = inhibition” value is inactive: -24.4%. The figure for `Cn1nnc2c(N3CCN(c4ccccc4)CC3)ncnc21` is inactive: -1.31%; for `COCCn1c(SCC(=O)c2ccc(C)cc2C)nc2cc(C(=O)NC3CCCC3)ccc2c1=O` it is inactive: -7.49%; for `CC(=O)Nc1ccc(S(=O)(=O)Nc2ccc([N+](=O)[O-])cc2)cc1` it is inactive: -1.44%. For the molecule `CC(C)COc1ccc(C2=NC(c3ccncc3)=Nc3ccc(F)cc3N2)cc1`, the “activity change, negative = inhibition” value was inactive: 0.482%. The figure for `CC(C)c1ccc(NC(=O)c2cc(S(=O)(=O)N3CCCCC3)cn2C)cc1` is inactive: -6.75%; for `COc1ccccc1CNc1nc2ccc(Cl)cc2n2cnnc12` it is inactive: -8.46%. As to `CC(=O)c1c(C)oc2c(Br)cc(NS(=O)(=O)c3ccc(Br)cc3)cc12`, the “activity change, negative = inhibition” value is inactive: -7.31%. Take `Cc1ccccc1OC(=O)CSc1nnc(-c2ccc3c(c2)OCO3)o1`: the “activity change, negative = inhibition” value is inactive: -22.6%. The figure for `COC(=O)c1cc(NC(=O)c2nn(C)c3c2CSc2ccccc2-3)cc(C(=O)OC)c1` is inactive: -12.2%; for `CCN(CC)CCNC(=O)c1ccc(CSc2nc3ccncc3n2Cc2cccc(F)c2)cc1` it is inactive: -2.65%. For `CCOc1ccc(-c2cc3c(=O)n(Cc4nc(-c5ccc(OC(C)C)cc5)oc4C)ccn3n2)cc1Cl`, the “activity change, negative = inhibition” value is inactive: -24.8%.
